Sequences with one replicate were seen in a single cluster, so their values are uncertain.
Each sequence was assayed on ATP (assay: switch fluorescence ratio, 500 uM ATP over buffer (Cy3 cluster intensity, sum of 5 cycles each) (fold (ratio)); higher = stronger signal-on switching upon ATP binding; sequences stand for … in TCGTCGGCAGCGTCAGATGTGTATAAGAGACAGTTTTTTTTTTTTTTTTTTTTTTTTT…TC). Settings: aptamer strand: ATP DNA aptamer (quencher-CACCTGGGGGAGTATTGCGGAGGAAGG + anchor), 100 nM annealed; ATP concentration: 500 uM; one replicate.
Method in brief: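 Cy3-labelled switching-strand clusters on a modified Illumina MiSeq flow-cell were annealed to 100 nM quencher-labelled ATP aptamer, imaged in selection buffer, then imaged after 15 min with 500 uM ATP at 22 °C. Five buffer/ATP cycles ran, with NaOH stripping and re-annealing between them. The fluorescence ratio is summed target-cycle over summed buffer-cycle Cy3 intensity per cluster, averaged per switch-domain sequence. Clusters outside 100-1000 RFU were excluded.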
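Note: ATP exposure 15 min at 22 °C before imaging.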

Sequence | switch fluorescence ratio
ATATGACTTC | 0.998
ATATGAGC | 1.04
ATATGCCATC | 1.04
ATATGCGGAA | 0.993
ATATGCGGAG | 0.993
ATATGCGGCC | 0.997
ATATGGACC | 1.06
ATATGGGCCG | 1.02
ATATGTAGCA | 1.01
ATATGTCATC | 1.09
ATATGTCCCC | 1.04
ATATGTCCGT | 0.994
ATATGTCTGC | 0.978
ATATTAATC | 0.976
ATATTACGTG | 1.05
ATATTCCTTG | 1.02
ATATTCGCTA | 1.09
ATATTCTATC | 0.993
ATATTGAATT | 0.961
ATATTTAAGC | 0.941
ATATTTAGGG | 0.929
ATATTTATCT | 0.997
ATATTTATGA | 0.974
ATATTTCAAT | 1.03
ATATTTGACG | 1.04
ATATTTGAGG | 1.03

Sequence | switch fluorescence ratio
ATATTTGGTA | 0.932
ATCAAAAAGA | 1.01
ATCAAACGC | 1.01
ATCAACGTGT | 0.972
ATCAACTCTG | 1.02
ATCAACTTTT | 1
ATCAATAGTT | 0.999
ATCAATGCAG | 1
ATCAATGCCT | 1.05
ATCAATGTGT | 0.967
ATCACCAGAA | 1.01
ATCACCGAAA | 1.12
ATCACGGTTC | 0.971
ATCACTATGA | 0.991
ATCACTCTAA | 1.08
ATCACTGAGG | 0.999
ATCAGAGGGT | 1.02
ATCAGATATA | 0.951
ATCAGATCCC | 0.99
ATCAGCAA | 3.72
ATCAGCATTT | 1.05
ATCAGCGATA | 1.18
ATCAGGCATA | 1.01
ATCAGGCCAA | 1.1
ATCAGGCGT | 1.05
ATCAGGTTTG | 1.01

Sequence | switch fluorescence ratio
ATCAGTAGTA | 1.01
ATCAGTCGAG | 0.97
ATCAGTCGGC | 1.04
ATCATACCAG | 1.02
ATCATACTCG | 1.06
ATCATATACA | 1.06
ATCATCATTT | 0.991
ATCATGCAAG | 1.01
ATCATGCTGA | 0.98
ATCATTACAT | 1.05
ATCATTTACT | 1.01
ATCATTTGCG | 1.01
ATCCACAGCT | 1.1
ATCCAGAT | 1.03
ATCCAGCTCA | 1
ATCCAGGCTC | 0.989
ATCCAGTACA | 1.03
ATCCATCAGA | 1.01
ATCCATGAAC | 0.983
ATCCATGGGC | 1.02
ATCCATTCTT | 1.01
ATCCATTTTC | 0.985
ATCCCCCGTC | 0.994
ATCCCGCCAA | 3.35
ATCCCTCG | 1.06
ATCCGAGATA | 1.17

Sequence | switch fluorescence ratio
ATCCGATGTC | 1.24
ATCCGGCATC | 1.37
ATCCGGGAGT | 0.982
ATCCGGTCC | 1.13
ATCCGTTATT | 1.01
ATCCTAGTCA | 0.991
ATCCTATGTT | 0.999
ATCCTCAATT | 1.13
ATCCTTGGTG | 1.3
ATCCTTGTGA | 1.01
ATCCTTTTAA | 0.969
ATCGACGCT | 1.74
ATCGACTATG | 0.975
ATCGAGGATG | 0.976
ATCGAGGTGA | 1.03
ATCGATCGAC | 1.03
ATCGATGGTT | 0.965
ATCGATGT | 0.986
ATCGCAGAGA | 0.949
ATCGCCCCTT | 1.08
ATCGCGCTCT | 1.01
ATCGCGGTCG | 0.994
ATCGCGGTGG | 1.01
